According to patent publication US20080132536A1, “PYRAZOLO [3,4-B] PYRIDINE COMPOUNDS, AND THEIR USE AS PDE4 INHIBITORS” (Glaxo Group Limited, priority 2003, published 2008):
Some results were stated once for a whole list of compounds, not compound by compound.

target: T1, PDE4B (human recombinant) (Homo sapiens, UniProt Q07343); experiment: PDE4B inhibition, radioactive SPA and/or IMAP fluorescence polarisation (FP) assay; format: biochemical; details: one reading or average of several (ca. 2-6) readings, range given for a group of Examples
T1 construct: made in house
T1 sequence (Q07343 1-564 isoform Q07343-2): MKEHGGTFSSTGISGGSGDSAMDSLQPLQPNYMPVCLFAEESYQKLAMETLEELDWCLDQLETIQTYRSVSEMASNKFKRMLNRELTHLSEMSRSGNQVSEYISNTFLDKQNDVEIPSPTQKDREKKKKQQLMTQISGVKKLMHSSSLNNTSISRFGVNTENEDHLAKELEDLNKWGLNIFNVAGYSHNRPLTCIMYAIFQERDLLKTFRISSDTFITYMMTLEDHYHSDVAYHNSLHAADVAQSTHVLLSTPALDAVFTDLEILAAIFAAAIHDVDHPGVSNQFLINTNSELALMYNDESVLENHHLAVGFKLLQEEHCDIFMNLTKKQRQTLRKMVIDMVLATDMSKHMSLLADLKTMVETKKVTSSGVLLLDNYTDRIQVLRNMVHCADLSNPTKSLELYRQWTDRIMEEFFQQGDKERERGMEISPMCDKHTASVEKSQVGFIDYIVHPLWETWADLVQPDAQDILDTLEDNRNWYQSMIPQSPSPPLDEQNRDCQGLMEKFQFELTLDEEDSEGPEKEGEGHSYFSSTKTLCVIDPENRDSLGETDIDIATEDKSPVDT
From the text: Human recombinant PDE4B, in particular the 2B splice variant thereof (HSPDE4B2B), is disclosed in WO 94/20079 and also M. M. McLaughlin et al., “A low Km, rolipram-sensitive, cAMP-specific phosphodiesterase from human brain: cloning and expression of cDNA, biochemical characterisation of recombinant protein, and tissue distribution of mRNA”, J. Biol. Chem., 1993, 268, 6470-6476. For example, in Example 1 of WO 94/20079, human recombinant PDE4B is described as being expressed in the PDE-deficient yeast Saccharomyces cerevisiae strain GL62, e.g. after induction by addition of 150 uM CuSO4, and 100,000×g supernatant fractions of yeast cell lysates are described for use in the harvesting of PDE4B enzyme.
The ability of compounds to inhibit catalytic activity at PDE4B or 4D (human recombinant), PDE3 (from bovine aorta), PDE5 (human recombinant) or PDE6 (from bovine retina) can optionally be determined by Scintillation Proximity Assay (SPA) in 96-well format.
Test compounds (as a solution in DMSO, preferably about 2 microlitre (ul) volume of DMSO solution) are preincubated at ambient temperature (room temperature, e.g. 19-23° C.) in Wallac Isoplates (code 1450-514) with PDE enzyme in 50 mM Tris-HCl buffer pH 7.5, 8.3 mM MgCl2, 1.7 mM EGTA, 0.05% (w/v) bovine serum albumin for 10-30 minutes (usually 30 minutes). The enzyme concentration is adjusted so that no more than 20% hydrolysis of the substrate defined below occurs in control wells without compound, during the incubation. For the PDE3, PDE4B and PDE4D assays, [5′,8-3H]Adenosine 3′,5′-cyclic phosphate (Amersham Pharmacia Biotech, code TRK.559; or Amersham Biosciences UK Ltd, Pollards Wood, Chalfont St Giles, Buckinghamshire HP8 4SP, UK) is added to give 0.05 uCi per well and about 10 nM final concentration. For the PDE5 and PDE6 assays, [8-^3H]Guanosine 3′,5′-cyclic phosphate (Amersham Pharmacia Biotech, code TRK.392) is added to give 0.05 uCi per well and about 36 nM final concentration. Plates containing assay mixture, preferably approx. 100 ul volume of assay mixture, are mixed on an orbital shaker for 5 minutes and incubated at ambient temperature for 1 hour. Phosphodiesterase SPA beads (Amersham Pharmacia Biotech, code RPNQ 0150) are added (about 1 mg per well) to terminate the assay. Plates are sealed and shaken and allowed to stand at ambient temperature for 35 minutes to 1 hour (preferably 35 minutes) to allow the beads to settle. Bound radioactive product is measured using a WALLAC TRILUX 1450 Microbeta scintillation counter. For inhibition curves, 10 concentrations (1.5 nM-30 uM) of each compound are assayed. Curves are analysed using ActivityBase and XLfit (ID Business Solutions Limited, 2 Ocean Court, Surrey Research Park, Guildford, Surrey GU2 7QB, United Kingdom) Results are expressed as pIC50 values.
The ability of compounds to inhibit catalytic activity at PDE4B (human recombinant) or PDE4D (human recombinant) can optionally be determined by IMAP Fluorescence Polarisation (FP) assay (IMAP Explorer kit, available from Molecular Devices Corporation, Sunnydale, Calif., USA; Molecular Devices code: R8062) in 384-well format.
The IMAP FP assay is able to measure PDE activity in an homogenous, non-radioactive assay format. The FP assay uses the ability of immobilised trivalent metal cations, coated onto nanoparticles (tiny beads), to bind the phosphate group of Fl-AMP that is produced on the hydrolysis of fluorescein-labelled (Fl) cyclic adenosine mono-phosphate (Fl-cAMP) to the non-cyclic Fl-AMP form. […] Binding of Fl-AMP product to the beads (coated with the immobilised trivalent cations) slows the rotation of the bound Fl-AMP and leads to an increase in the fluorescence polarisation ratio of parallel to perpendicular light. Inhibition of the PDE reduces/inhibits this signal increase. […]

| Compound | PDE4B pIC50 (±about 0.5) |
| --- | --- |
| CC[C@@H](NC(=O)c1cnc2c(cnn2CC)c1NC1CCN(C(N)=O)CC1)c1cc(C)ccc1C [Example 343, 4-{[1-(aminocarbonyl)-4-piperidinyl]amino}-N-[(1R)-1-(2,5-dimethylphenyl)propyl]-1-ethyl-1H-pyrazolo[3,4-b]pyridine-5-carboxamide] | 9.0 to 10.1 |
| CCc1ccccc1[C@@H](CC)NC(=O)c1cnc2c(cnn2CC)c1NC1CCN(C(N)=O)CC1 [Example 344, 4-{[1-(aminocarbonyl)-4-piperidinyl]amino}-1-ethyl-N-[(1R)-1-(2-ethylphenyl)propyl]-1H-pyrazolo[3,4-b]pyridine-5-carboxamide] | 9.0 to 10.1 |
| CC[C@@H](NC(=O)c1cnc2c(cnn2CC)c1NC1CCN(C(N)=O)CC1)c1c(C)cc(C)cc1C [Example 345, 4-{[1-(aminocarbonyl)-4-piperidinyl]amino}-1-ethyl-N-[(1R)-1-(2,4,6-trimethylphenyl)propyl]-1H-pyrazolo[3,4-b]pyridine-5-carboxamide] | 9.0 to 10.1 |
| CCn1ncc2c(N[C@H]3CCN(C(N)=O)C3)c(C(=O)N[C@H](C)c3ccc(C)cc3)cnc21 [Example 361, 4-{[(3S)-1-(aminocarbonyl)pyrrolidin-3-yl]amino}-1-ethyl-N-[(1R)-1-(4-methylphenyl)ethyl]-1H-pyrazolo[3,4-b]pyridine-5-carboxamide] | 7.2 to 9.0 |
| CCC(NC(=O)c1cnc2c(cnn2CC)c1N[C@H]1CCN(C(N)=O)C1)c1ccc(C)c(C)c1 (stereo partly drawn) [Example 362, 4-{[(3S)-1-(aminocarbonyl)pyrrolidin-3-yl]amino}-N-[1-(3,4-dimethylphenyl)propyl]-1-ethyl-1H-pyrazolo[3,4-b]pyridine-5-carboxamide] | 7.2 to 9.0 |
| CCn1ncc2c(N[C@H]3CCN(C(N)=O)C3)c(C(=O)N[C@H](C)c3ccc(Br)cc3)cnc21 [Example 363, 4-{[(3S)-1-(aminocarbonyl)pyrrolidin-3-yl]amino}-N-[(1R)-1-(4-bromophenyl)ethyl]-1-ethyl-1H-pyrazolo[3,4-b]pyridine-5-carboxamide] | 7.2 to 9.0 |
| CCn1ncc2c(N[C@@H]3CCN(C(N)=O)C3)c(C(=O)N[C@H](C)c3ccc(C)cc3)cnc21 [Example 365, 4-{[(3R)-1-(aminocarbonyl)pyrrolidin-3-yl]amino}-1-ethyl-N-[(1R)-1-(4-methylphenyl)ethyl]-1H-pyrazolo[3,4-b]pyridine-5-carboxamide] | 7.2 to 9.0 |
| CCC(NC(=O)c1cnc2c(cnn2CC)c1N[C@@H]1CCN(C(N)=O)C1)c1ccc(C)c(C)c1 (stereo partly drawn) [Example 366, 4-{[(3R)-1-(aminocarbonyl)pyrrolidin-3-yl]amino}-N-[1-(3,4-dimethylphenyl)propyl]-1-ethyl-1H-pyrazolo[3,4-b]pyridine-5-carboxamide] | 7.2 to 9.0 |
| CCn1ncc2c(N[C@@H]3CCN(C(N)=O)C3)c(C(=O)N[C@H](C)c3ccc(Br)cc3)cnc21 [Example 367, 4-{[(3R)-1-(aminocarbonyl)pyrrolidin-3-yl]amino}-N-[(1R)-1-(4-bromophenyl)ethyl]-1-ethyl-1H-pyrazolo[3,4-b]pyridine-5-carboxamide] | 7.2 to 9.0 |
| CCn1ncc2c(N[C@H]3C[C@@H](C(N)=O)C3)c(C(=O)N[C@H](C)c3ccc(C)cc3)cnc21 [Example 368, 4-{[cis-3-(aminocarbonyl)cyclobutyl]amino}-1-ethyl-N-[(1R)-1-(4-methylphenyl)ethyl]-1H-pyrazolo[3,4-b]pyridine-5-carboxamide] | 8.0 to 9.45 |
| CCn1ncc2c(N[C@H]3CC[C@H](C(C)=O)CC3)c(C(=O)N[C@H](C)c3ccc(C)cc3)cnc21 [Example 370, 4-[(trans-4-acetylcyclohexyl)amino]-1-ethyl-N-[(1R)-1-(4-methylphenyl)ethyl]-1H-pyrazolo[3,4-b]pyridine-5-carboxamide] | 6.9 to 7.9 |
| CCn1ncc2c(N[C@H]3CC[C@@H](C(C)=O)CC3)c(C(=O)N[C@H](C)c3ccc(C)cc3)cnc21 [Example 372, 4-[(cis-4-acetylcyclohexyl)amino]-1-ethyl-N-[(1R)-1-(4-methylphenyl)ethyl]-1H-pyrazolo[3,4-b]pyridine-5-carboxamide] | 6.9 to 7.9 |
| CCC(NC(=O)c1cnc2c(cnn2CC)c1N[C@H]1CC[C@@H](C(C)O)CC1)c1ccc(C)cc1C (stereo partly drawn) [Example 373, 4-{[cis-4-(1-hydroxyethyl)cyclohexyl]amino}-N-[1-(2,4-dimethylphenyl)propyl]-1-ethyl-1H-pyrazolo[3,4-b]pyridine-5-carboxamide] | 6.9 to 7.9 |
| CCn1ncc2c(NC3CCOCC3)c(C(=O)NC(CCC(=O)N(C)C)c3cccc(C)c3)cnc21 (stereo not drawn) [Example 379, N-[4-(dimethylamino)-1-(3-methylphenyl)-4-oxobutyl]-1-ethyl-4-(tetrahydro-2H-pyran-4-ylamino)-1H-pyrazolo[3,4-b]pyridine-5-carboxamide] | 8.0 to 9.45 |
| CCn1ncc2c(NC3CCN(C(N)=O)CC3)c(C(=O)NC(CCC(=O)N(C)C)c3cccc(C)c3)cnc21 (stereo not drawn) [Example 380, 4-{[1-(aminocarbonyl)-4-piperidinyl]amino}-N-[4-(dimethylamino)-1-(3-methylphenyl)-4-oxobutyl]-1-ethyl-1H-pyrazolo[3,4-b]pyridine-5-carboxamide] | 8.0 to 9.45 |
